{"source": "paper PMC4336329", "about": "(PLoS ONE, 2015)", "note": "In all, about 310,000 compounds went through this assay and about 2,200 (0.71%) showed an effect of 50% or more. The effect is printed as a negative number. This is one part of the list."}
{"molecular_target": "human ether-à-go-go-related gene (hERG) potassium channel (human, UniProt Q12809)", "sequence (Q12809 whole entry, looked up)": "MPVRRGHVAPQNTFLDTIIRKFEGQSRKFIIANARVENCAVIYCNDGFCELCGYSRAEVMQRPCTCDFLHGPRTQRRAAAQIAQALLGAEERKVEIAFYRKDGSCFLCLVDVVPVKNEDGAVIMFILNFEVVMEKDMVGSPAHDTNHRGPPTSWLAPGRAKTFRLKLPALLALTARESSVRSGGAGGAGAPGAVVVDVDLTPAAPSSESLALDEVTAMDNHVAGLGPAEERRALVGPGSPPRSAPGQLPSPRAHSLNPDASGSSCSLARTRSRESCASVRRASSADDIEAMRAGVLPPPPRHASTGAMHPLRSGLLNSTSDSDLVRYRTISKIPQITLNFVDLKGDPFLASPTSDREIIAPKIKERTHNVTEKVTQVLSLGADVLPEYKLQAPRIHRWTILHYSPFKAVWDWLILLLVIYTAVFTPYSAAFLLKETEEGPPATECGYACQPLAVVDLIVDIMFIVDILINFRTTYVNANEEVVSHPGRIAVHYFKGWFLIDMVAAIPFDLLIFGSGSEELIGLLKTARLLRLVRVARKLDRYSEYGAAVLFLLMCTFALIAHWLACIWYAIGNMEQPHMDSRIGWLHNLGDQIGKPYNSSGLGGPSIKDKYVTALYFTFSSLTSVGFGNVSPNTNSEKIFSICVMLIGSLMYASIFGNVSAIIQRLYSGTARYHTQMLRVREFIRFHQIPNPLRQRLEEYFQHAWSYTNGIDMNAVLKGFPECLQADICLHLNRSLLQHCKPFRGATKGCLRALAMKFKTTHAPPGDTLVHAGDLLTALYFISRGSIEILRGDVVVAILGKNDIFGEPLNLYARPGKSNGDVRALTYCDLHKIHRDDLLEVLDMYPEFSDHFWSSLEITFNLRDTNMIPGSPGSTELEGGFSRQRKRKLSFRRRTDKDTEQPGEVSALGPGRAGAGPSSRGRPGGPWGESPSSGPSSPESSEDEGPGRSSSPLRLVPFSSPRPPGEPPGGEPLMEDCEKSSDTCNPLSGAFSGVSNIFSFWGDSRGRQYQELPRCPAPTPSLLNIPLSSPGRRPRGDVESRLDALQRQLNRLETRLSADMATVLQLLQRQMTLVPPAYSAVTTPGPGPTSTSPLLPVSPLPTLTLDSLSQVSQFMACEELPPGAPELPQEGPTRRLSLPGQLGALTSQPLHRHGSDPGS", "experiment": "primary screen, population patch clamp on CHO cells stably expressing hERG", "units": {"hERG current change (%, negative = inhibition) at 1uM": "%"}}
{"smiles": "CC(=O)Oc1ccc(NC(=O)CCC2CCCCC2)c(C(=O)O)c1", "hERG current change (%, negative = inhibition) at 1uM": 9.09}
{"smiles": "Cn1nnc(NC(=S)NC(=O)/C=C/c2ccco2)n1", "hERG current change (%, negative = inhibition) at 1uM": 18.4}
{"smiles": "COc1ccc2c(c1)C(=O)CC(O)(C(F)F)O2", "note": "(stereo not drawn)", "hERG current change (%, negative = inhibition) at 1uM": 3.11}
{"smiles": "COc1cc(N)n(S(=O)(=O)c2ccc(C)cc2)n1", "hERG current change (%, negative = inhibition) at 1uM": 14.3}
{"smiles": "CC(C)c1nc(CN(C)C(=O)N[C@H](C(=O)N[C@@H](Cc2ccccc2)C[C@H](O)[C@H](Cc2ccccc2)NC(=O)OCc2cncs2)C(C)C)cs1", "hERG current change (%, negative = inhibition) at 1uM": 10.6}
{"smiles": "CCN(CC)C(=O)c1cnn(-c2ccccc2)c1NC(=O)c1cccs1", "hERG current change (%, negative = inhibition) at 1uM": 9.61}
{"smiles": "COc1cccc(CN2CCN(Cc3cccc(F)c3)CC2)c1.O=C(O)C(=O)O", "hERG current change (%, negative = inhibition) at 1uM": 10.2}
{"smiles": "CCCCc1ccc(NC(=S)N2CCN(c3ccccn3)CC2)cc1", "hERG current change (%, negative = inhibition) at 1uM": 6.18}
{"smiles": "O=C1CSc2ccccc2N1Cc1ccc(F)cc1", "hERG current change (%, negative = inhibition) at 1uM": 8.14}
{"smiles": "OC(c1cccnc1)c1cccs1", "note": "(stereo not drawn)", "hERG current change (%, negative = inhibition) at 1uM": 15.6}
{"smiles": "Cc1cccc(NC(=S)N2CCCCCC2)c1C", "hERG current change (%, negative = inhibition) at 1uM": 15.2}
{"smiles": "CC(=O)NCCc1nc2ccccc2n1Cc1ccc(Cl)cc1", "hERG current change (%, negative = inhibition) at 1uM": 9.78}
{"smiles": "O=C(NCCc1ccc(Cl)cc1)c1ccc2nccnc2c1", "hERG current change (%, negative = inhibition) at 1uM": -6.73}
{"smiles": "CCN1CCc2nc(SCC(=O)Nc3ccc(OC)cc3)c(C#N)cc2C1", "hERG current change (%, negative = inhibition) at 1uM": -18}
{"smiles": "Cc1cccc(C2c3[nH]c4ccccc4c3CCN2C(=O)c2cc(CC(C)C)nc(C)n2)n1", "note": "(stereo not drawn)", "hERG current change (%, negative = inhibition) at 1uM": 14}
{"smiles": "O=C(O)C1C(=O)NCC1c1ccccc1", "note": "(stereo not drawn)", "hERG current change (%, negative = inhibition) at 1uM": 9.14}
{"smiles": "COC(=O)c1sc(NC(=O)c2ccco2)nc1C", "hERG current change (%, negative = inhibition) at 1uM": 18}
{"smiles": "CCN(CC)c1ccc(-n2c(C)cc(C=O)c2C)cc1", "hERG current change (%, negative = inhibition) at 1uM": 13.3}
{"smiles": "Cc1nc2ccccc2n1CC(O)COc1ccc(Br)cc1", "note": "(stereo not drawn)", "hERG current change (%, negative = inhibition) at 1uM": -5.81}
{"smiles": "FC(F)(F)c1nnc2sc(-c3ccncc3)nn12", "hERG current change (%, negative = inhibition) at 1uM": 11.4}
{"smiles": "CCO.CCOC(=O)c1c(-c2ccccc2)oc2ccc(OC(C)C(=O)O)cc12", "note": "(stereo not drawn)", "hERG current change (%, negative = inhibition) at 1uM": 6.31}
{"smiles": "COc1ccc(-n2c(=S)[nH]c3cc(C(=O)Nc4cccc(C)c4)ccc3c2=O)cc1", "hERG current change (%, negative = inhibition) at 1uM": 2.35}
{"smiles": "O=C(NN1CCOCC1)c1cc(S(=O)(=O)Nc2cccc(C(F)(F)F)c2)ccc1Cl", "hERG current change (%, negative = inhibition) at 1uM": 6.25}
{"smiles": "O=C(Nc1nccs1)c1ccc(Cl)c([N+](=O)[O-])c1", "hERG current change (%, negative = inhibition) at 1uM": 11.2}
{"smiles": "CCN(c1ccccc1)S(=O)(=O)c1ccc(C(=O)Nc2nccs2)cc1", "hERG current change (%, negative = inhibition) at 1uM": 4.94}
{"smiles": "Cc1cc(OCC(=O)Nc2ccccc2C)no1", "hERG current change (%, negative = inhibition) at 1uM": 15.1}
{"smiles": "CC(C)NC(=O)CSc1nc(N)c(-c2ccccc2)c(=O)[nH]1", "hERG current change (%, negative = inhibition) at 1uM": 8.6}
{"smiles": "CCc1c(C(=O)Nc2ccc(S(=O)(=O)N3CCOCC3)cc2)csc1C", "hERG current change (%, negative = inhibition) at 1uM": -7.22}
{"smiles": "CC(C)(C)c1ccc(C(=O)Nc2c3c(nn2C(C)(C)C)CS(=O)(=O)C3)cc1", "hERG current change (%, negative = inhibition) at 1uM": 5.49}
{"smiles": "C=CCNC(=S)NNC(=O)c1cccn(Cc2ccc(Cl)c(Cl)c2)c1=O", "hERG current change (%, negative = inhibition) at 1uM": 5.23}
{"smiles": "CC1CCN(c2ncnc3c2cnn3-c2ccccc2)CC1", "hERG current change (%, negative = inhibition) at 1uM": 15.2}
{"smiles": "O=C(O)c1ccccc1NS(=O)(=O)c1ccc2c(c1)OCCO2", "hERG current change (%, negative = inhibition) at 1uM": 13.8}
{"smiles": "CC(=O)Nc1ccc(NC(=O)c2c([N+](=O)[O-])cnn2C)cc1", "hERG current change (%, negative = inhibition) at 1uM": 15.7}
{"smiles": "O=C(Cn1ncc(N2CCOCC2)c(Br)c1=O)c1ccc(Cl)cc1", "hERG current change (%, negative = inhibition) at 1uM": 1.92}
{"smiles": "O=C1C=C(N2CCN(C3=CC(=O)CCC3)CC2)CCC1", "hERG current change (%, negative = inhibition) at 1uM": 11.7}
{"smiles": "Cn1c(-c2cccc(F)c2)nc2c1c(=O)[nH]c(=O)n2Cc1ccccc1", "hERG current change (%, negative = inhibition) at 1uM": 17.2}
{"smiles": "Cc1ccc(S(=O)(=O)N2CCOCC2)cc1NC(=O)CSc1nnc(N)s1", "hERG current change (%, negative = inhibition) at 1uM": 21}
{"smiles": "CCCNC(=S)N1CCC(NC(=O)C2CCCCC2)CC1", "hERG current change (%, negative = inhibition) at 1uM": 18.5}
{"smiles": "CN(C)c1ccc(C(CNC(=O)c2ccc(-c3ccccc3)cc2)N2CCOCC2)cc1", "note": "(stereo not drawn)", "hERG current change (%, negative = inhibition) at 1uM": 8.46}
{"smiles": "Cc1cccc2[nH]c3c(N4CCN(C(=O)c5ccco5)CC4)ncnc3c12", "hERG current change (%, negative = inhibition) at 1uM": -5.77}
{"smiles": "Cc1cnc(CN(C)C(=O)c2cc(COc3c(F)cccc3F)on2)[nH]1", "hERG current change (%, negative = inhibition) at 1uM": -7.52}
{"smiles": "CNC(=S)N1N=C(c2ccc(Br)cc2)CC1c1ccc(N(C)C)cc1", "note": "(stereo not drawn)", "hERG current change (%, negative = inhibition) at 1uM": 11.1}
{"smiles": "COc1ccc(OC)c(CNC(=O)CCS(=O)(=O)c2ccc3c(c2)oc(=O)n3C)c1", "hERG current change (%, negative = inhibition) at 1uM": 11.6}
{"smiles": "COc1ccc(OC)c(/C=N/NC(=O)CC2C(=O)NN=C2C)c1", "note": "(stereo not drawn)", "hERG current change (%, negative = inhibition) at 1uM": 9.14}
{"smiles": "O=C(NCc1ccncc1)c1cccc(S(=O)(=O)NCc2ccccc2)c1", "hERG current change (%, negative = inhibition) at 1uM": 1.41}
